Assay results published in patent EP4810052A2, “HCRHR2 SELECTIVE POLYPEPTIDES” (Gubra A/S, priority 2023, dated 2026).
At least one structure is not confirmed: it was looked up by name or label, or the drawing left a doubt. Starred links: 1 amine or outer side, 2 acyl side, 3 side chain; linkers in the order of their positions; H or OH if unused. Non-standard residues stand in square brackets, D forms with d. Residues, ends and D or L forms follow the SMILES beside them. Groups on a side chain read outwards from the residue. *: point of attachment. C20 diacid = O=C(O)CCCCCCCCCCCCCCCCCCC(=O)*; γGlu = O=C(O)[C@H](CCC(=O)[*:2])N[*:1]; Nle = CCCC[C@H](N)C(=O)O; AEEA = NCCOCCOCC(=O)O

Legend:
hCRHR2 = biological target: T1, hCRHR2 (Homo sapiens, UniProt Q13324); assay: HTRF cAMP assay, determination of hCRHR2 potency (peptide libraries 5 conc., purified peptides 11 conc.); format: cell-based; details: library peptides, matched molecular pairs L vs Nle in position X^38
T1 sequence (Q13324 1-411): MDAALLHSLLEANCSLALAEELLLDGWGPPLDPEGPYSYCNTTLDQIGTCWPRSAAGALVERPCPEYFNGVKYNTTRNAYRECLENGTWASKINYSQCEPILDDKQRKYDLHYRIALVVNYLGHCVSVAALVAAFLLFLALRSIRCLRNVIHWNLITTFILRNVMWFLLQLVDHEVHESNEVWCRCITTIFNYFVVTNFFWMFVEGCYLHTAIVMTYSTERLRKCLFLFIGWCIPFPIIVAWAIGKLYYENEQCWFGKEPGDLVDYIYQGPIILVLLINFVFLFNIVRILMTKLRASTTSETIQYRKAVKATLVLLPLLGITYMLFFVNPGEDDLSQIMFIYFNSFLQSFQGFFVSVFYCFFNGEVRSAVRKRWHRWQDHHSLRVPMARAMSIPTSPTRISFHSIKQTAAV
Description: HTRF (CisBio) cAMP assay: The assay technology has thoroughly been described in the CisBio HTRF cAMP assay Kit manual (# 62AM4PEC). Briefly, time resolved fluorescence technic was applied to measure cAMP. This technic is based on a competitive immunoassay using cryptate-labelled anti-cAMP antibody and d2-labeled cAMP. In the absence of cellular cAMP, the anti-cAMP cryptate conjugate may get into proximity to cAMP-d2 conjugate and energy (FRET) can be transferred from cryptate to d2.
CHO-K1 cells stably expressing the human corticotropin-releasing hormone receptor 2 (Eurofins/DiscoverX, Cat #95-0048C2 hCRHR2 stable monoclonal cell lines) were used as cells in suspension, brought to life from frozen cell stocks immediately before assay performance.
Concentration-response evaluation of compounds was performed with 5 concentrations of agonist peptides and EC50 values were calculated by nonlinear regression using sigmoid concentration-response with variable slope.
Concentration-response evaluation of compounds was performed with 11 concentrations of agonist peptides and EC50 values were calculated by nonlinear regression using sigmoid concentration-response with variable slope.

hCRHR1 = biological target: T2, hCRHR1 (Homo sapiens, UniProt P34998); assay: HTRF cAMP assay, determination of hCRHR1 potency (peptide libraries 5 conc., purified peptides 11 conc.); format: cell-based; details: library peptides, matched molecular pairs L vs Nle in position X^38
T2 sequence (P34998 24-415): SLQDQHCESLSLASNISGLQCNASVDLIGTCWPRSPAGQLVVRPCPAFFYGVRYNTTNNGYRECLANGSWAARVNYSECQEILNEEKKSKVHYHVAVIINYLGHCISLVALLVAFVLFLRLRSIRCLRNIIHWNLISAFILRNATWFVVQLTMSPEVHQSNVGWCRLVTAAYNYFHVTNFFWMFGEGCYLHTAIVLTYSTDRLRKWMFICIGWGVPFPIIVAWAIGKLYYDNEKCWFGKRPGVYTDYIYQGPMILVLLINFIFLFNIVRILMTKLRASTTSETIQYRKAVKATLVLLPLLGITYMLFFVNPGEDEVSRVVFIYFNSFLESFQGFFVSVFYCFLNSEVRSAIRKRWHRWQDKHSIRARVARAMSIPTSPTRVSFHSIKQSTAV
Description: HTRF (CisBio) cAMP assay: The assay technology has thoroughly been described in the CisBio HTRF cAMP assay Kit manual (# 62AM4PEC). Briefly, time resolved fluorescence technic was applied to measure cAMP. This technic is based on a competitive immunoassay using cryptate-labelled anti-cAMP antibody and d2-labeled cAMP. In the absence of cellular cAMP, the anti-cAMP cryptate conjugate may get into proximity to cAMP-d2 conjugate and energy (FRET) can be transferred from cryptate to d2. CHO-K1 cells stably expressing the human corticotropin-releasing hormone receptor 1 (Eurofins/DiscoverX Cat #95-0047C2 hCRHR1 stable monoclonal cell lines) were used as cells in suspension, brought to life from frozen cell stocks immediately before assay performance. […] Concentration-response evaluation of compounds was performed with 5 concentrations of agonist peptides and EC50 values were calculated by nonlinear regression using sigmoid concentration-response with variable slope. Concentration-response evaluation of compounds was performed with 11 concentrations of agonist peptides and EC50 values were calculated by nonlinear regression using sigmoid concentration-response with variable slope.

Row | SMILES | Potency hCRHR2 pEC50 (hCRHR2) | Potency hCRHR1 pEC50 (hCRHR1)
1 | CCCC[C@H](NC(=O)[C@@H](NC(=O)[C@H](CCC(=O)O)NC(=O)[C@H](C)NC(=O)[C@H](CC(N)=O)NC(=O)[C@@H](NC(=O)[C@H](CCCCNC(=O)COCCOCCNC(=O)COCCOCCNC(=O)CC[C@H](NC(=O)CC[C@H](NC(=O)CCCCCCCCCCCCCCCCCCC(=O)O)C(=O)O)C(=O)O)NC(=O)[C@H](C)NC(=O)[C@H](CCC(N)=O)NC(=O)[C@H](CCC(=O)O)NC(=O)[C@H](CCCNC(=N)N)NC(=O)[C@H](C)NC(=O)[C@H](C)NC(=O)[C@H](CCCNC(=N)N)NC(=O)[C@H](C)NC(=O)[C@H](CCCNC(=N)N)NC(=O)[C@H](C)NC(=O)[C@H](CCC(N)=O)NC(=O)[C@H](CCC(=O)O)NC(=O)[C@H](CC(C)C)NC(=O)[C@H](CC(C)C)NC(=O)[C@@H](NC(=O)[C@H](CCC(N)=O)NC(=O)[C@H](CC(C)C)NC(=O)[C@H](CC(C)C)NC(=O)CNC(=O)[C@H](CC(C)C)NC(=O)[C@@H]1CCCN1C(=O)[C@@H](NC(=O)[C@H](CC(=O)O)NC(=O)[C@H](CC(C)C)NC(=O)[C@H](CO)NC(=O)[C@H](CC(C)C)NC(=O)[C@@H](NC(=O)[C@@H](N)[C@@H](C)CC)C(C)C)C(C)C)[C@@H](C)CC)[C@@H](C)O)[C@@H](C)CC)C(=O)N[C@@H](C)C(=O)N[C@@H](CCC(=O)O)C(=O)N[C@H](C(N)=O)C(C)C [compound 99] (H-IVLSLDVPLGLLQILLEQARARAAREQAK([AEEA-AEEA-γGlu-γGlu-C20 diacid])TNAEI[Nle]AEV-NH2; N-terminus assumed) | 9.5 | 8.5
2 | CC[C@H](C)[C@H](N)C(=O)N[C@H](C(=O)N[C@@H](CC(C)C)C(=O)N[C@@H](CO)C(=O)N[C@@H](CC(C)C)C(=O)N[C@@H](CC(=O)O)C(=O)N[C@H](C(=O)N1CCC[C@H]1C(=O)N[C@H](C(=O)NCC(=O)N[C@@H](CC(C)C)C(=O)N[C@@H](CC(C)C)C(=O)N[C@@H](CCC(N)=O)C(=O)N[C@H](C(=O)N[C@@H](CC(C)C)C(=O)N[C@@H](CC(C)C)C(=O)N[C@H](C(=O)N[C@@H](CCC(N)=O)C(=O)N[C@@H](C)C(=O)N[C@@H](CCCNC(=N)N)C(=O)N[C@@H](C)C(=O)N[C@@H](CCCNC(=N)N)C(=O)N[C@@H](CCC(N)=O)C(=O)N[C@@H](C)C(=O)N[C@@H](CCCNC(=N)N)C(=O)N[C@@H](CCC(=O)O)C(=O)N[C@@H](CCC(N)=O)C(=O)N[C@@H](C)C(=O)N[C@@H](CCCCNC(=O)COCCOCCNC(=O)COCCOCCNC(=O)CC[C@H](NC(=O)CC[C@H](NC(=O)CCCCCCCCCCCCCCCCCCC(=O)O)C(=O)O)C(=O)O)C(=O)N[C@H](C(=O)N[C@@H](CC(N)=O)C(=O)N[C@@H](C)C(=O)N[C@@H](CCC(=O)O)C(=O)N[C@H](C(=O)N[C@@H](CC(C)C)C(=O)N[C@@H](C)C(=O)N[C@@H](CCC(=O)O)C(=O)N[C@H](C(N)=O)C(C)C)[C@@H](C)CC)[C@@H](C)O)[C@@H](C)O)[C@@H](C)CC)[C@@H](C)CC)C(C)C)C(C)C [compound 92] (H-IVLSLDVPIGLLQILLTQARARQAREQAK([AEEA-AEEA-γGlu-γGlu-C20 diacid])TNAEILAEV-NH2; N-terminus assumed) | 9.4 | 4.0
